From publication PMC6090299
These are yes or no findings as the source states them, for the method shown. For some assays here: In cells and extracts the contact can be indirect. Some results given as binding are weak or reduced against the parent protein; the word gives no strength. Sequences can lack the tags named with a protein. Values belong to the binder of their own block, whether it stands above or below them.

The chains behind the UniProt entries cited, without tags or fusion partners. Where a name states a change or a piece, a line headed by the entry shows the natural chain unless it says otherwise. A line that says so, or that is headed by a name, gives the form on record, which may keep a tag or linker. Residues count along the entry.
UniProt Q9NQS3, residues 58-404: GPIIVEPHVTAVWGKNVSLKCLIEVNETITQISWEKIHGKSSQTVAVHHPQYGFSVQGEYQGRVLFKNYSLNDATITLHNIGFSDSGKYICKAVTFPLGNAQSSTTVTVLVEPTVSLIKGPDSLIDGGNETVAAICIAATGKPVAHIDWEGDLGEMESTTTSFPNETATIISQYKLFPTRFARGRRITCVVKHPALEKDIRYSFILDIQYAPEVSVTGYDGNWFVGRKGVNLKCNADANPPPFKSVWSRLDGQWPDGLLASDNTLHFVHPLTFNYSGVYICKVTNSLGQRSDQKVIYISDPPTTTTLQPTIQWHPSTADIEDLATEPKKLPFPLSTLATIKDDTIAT
Nectin-2-Fc (human (by the printed RefSeq entry)) (Q92692, form named): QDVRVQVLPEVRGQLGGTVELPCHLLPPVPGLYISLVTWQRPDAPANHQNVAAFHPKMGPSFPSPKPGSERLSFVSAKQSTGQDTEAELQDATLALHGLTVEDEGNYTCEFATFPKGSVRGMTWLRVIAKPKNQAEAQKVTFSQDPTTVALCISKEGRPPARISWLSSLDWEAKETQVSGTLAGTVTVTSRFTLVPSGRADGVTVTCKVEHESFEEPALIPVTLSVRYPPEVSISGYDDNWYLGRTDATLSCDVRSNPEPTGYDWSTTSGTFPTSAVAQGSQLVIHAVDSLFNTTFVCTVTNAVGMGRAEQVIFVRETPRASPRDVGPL
UniProt Q96NY8, residues 32-349: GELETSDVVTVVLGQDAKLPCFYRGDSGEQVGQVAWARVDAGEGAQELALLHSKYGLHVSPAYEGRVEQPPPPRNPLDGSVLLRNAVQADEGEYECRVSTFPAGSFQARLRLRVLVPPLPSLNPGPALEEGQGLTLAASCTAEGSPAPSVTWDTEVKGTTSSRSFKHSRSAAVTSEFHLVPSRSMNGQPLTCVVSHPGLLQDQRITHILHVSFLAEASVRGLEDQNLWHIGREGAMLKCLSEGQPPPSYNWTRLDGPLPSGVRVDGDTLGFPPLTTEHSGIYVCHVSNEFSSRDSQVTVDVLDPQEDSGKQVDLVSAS

Columns and labels:
[1] = target: T1, CADM3-Fc (human (by the printed RefSeq entry)) (UniProt Q8N126); experiment: SPR; SPR imaging (OpenPlex); the 10 IgSF-Fc proteins spotted and immobilised by amine coupling; CADM2-Fc, CADM3-Fc or CADM4-Fc injected as analyte; 25°C; PBS with 0.2% BSA and 0.02% Tween20, 50 μL/min; both purified
T1 sequence: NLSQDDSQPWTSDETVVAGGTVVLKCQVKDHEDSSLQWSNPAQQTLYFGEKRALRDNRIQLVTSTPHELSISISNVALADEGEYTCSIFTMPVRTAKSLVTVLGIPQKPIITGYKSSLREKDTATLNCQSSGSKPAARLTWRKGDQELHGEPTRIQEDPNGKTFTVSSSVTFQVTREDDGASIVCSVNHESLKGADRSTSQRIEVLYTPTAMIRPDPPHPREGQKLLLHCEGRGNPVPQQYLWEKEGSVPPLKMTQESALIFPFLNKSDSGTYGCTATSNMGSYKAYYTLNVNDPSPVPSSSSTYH

[2] = target: T2, CADM1-Fc (human (by the printed RefSeq entry)) (UniProt Q9BY67); experiment: as above
T2 sequence: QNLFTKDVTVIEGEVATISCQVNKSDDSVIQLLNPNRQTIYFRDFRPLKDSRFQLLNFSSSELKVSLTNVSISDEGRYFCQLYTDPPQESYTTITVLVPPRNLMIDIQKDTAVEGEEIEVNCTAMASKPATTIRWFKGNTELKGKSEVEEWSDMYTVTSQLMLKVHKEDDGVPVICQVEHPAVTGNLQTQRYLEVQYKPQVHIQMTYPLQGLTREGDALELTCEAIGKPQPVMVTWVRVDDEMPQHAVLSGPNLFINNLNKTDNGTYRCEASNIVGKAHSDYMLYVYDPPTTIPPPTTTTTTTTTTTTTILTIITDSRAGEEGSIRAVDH

[3] = target: T3, CADM2-Fc (human (by the printed RefSeq entry)) (UniProt Q8N3J6); experiment: as above
T3 sequence: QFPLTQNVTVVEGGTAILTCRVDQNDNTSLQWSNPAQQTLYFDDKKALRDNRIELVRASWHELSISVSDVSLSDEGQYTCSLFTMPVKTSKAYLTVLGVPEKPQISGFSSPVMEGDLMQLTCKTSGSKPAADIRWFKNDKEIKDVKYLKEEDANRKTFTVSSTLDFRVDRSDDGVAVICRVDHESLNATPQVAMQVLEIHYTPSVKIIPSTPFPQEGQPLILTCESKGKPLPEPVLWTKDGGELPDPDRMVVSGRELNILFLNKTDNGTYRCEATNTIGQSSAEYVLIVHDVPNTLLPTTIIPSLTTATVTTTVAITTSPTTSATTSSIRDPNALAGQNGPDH

[4] = target: T4, Nectin-1-Fc (human (by the printed RefSeq entry)) (UniProt Q15223); experiment: as above
T4 sequence: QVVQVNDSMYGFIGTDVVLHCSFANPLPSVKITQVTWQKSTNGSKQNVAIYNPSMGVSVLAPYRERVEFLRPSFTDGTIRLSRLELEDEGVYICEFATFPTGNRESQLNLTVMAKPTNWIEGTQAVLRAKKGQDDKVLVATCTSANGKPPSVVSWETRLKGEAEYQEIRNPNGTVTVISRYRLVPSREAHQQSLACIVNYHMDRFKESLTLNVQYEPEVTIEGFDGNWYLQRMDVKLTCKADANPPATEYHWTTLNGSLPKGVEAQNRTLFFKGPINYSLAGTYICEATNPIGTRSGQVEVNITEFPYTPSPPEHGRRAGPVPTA

[5] = target: Nectin-3-Fc (human (by the printed RefSeq entry)) (UniProt Q9NQS3); experiment: as above
CADM4-FLAG = target: T5, CADM4-FLAG (UniProt Q8NFZ8); experiment: co-IP; 293FT cells transfected with CADM4-FLAG co-cultured 1:1 for 2 days with cells transfected with CADM1-GFP; cross-linked with 1 mM DTSSP; lysed in TNE buffer (1% Triton-X100); anti-FLAG M2 Affinity Gel, elution with 3 × FLAG peptide, Western blotting
T5 sequence: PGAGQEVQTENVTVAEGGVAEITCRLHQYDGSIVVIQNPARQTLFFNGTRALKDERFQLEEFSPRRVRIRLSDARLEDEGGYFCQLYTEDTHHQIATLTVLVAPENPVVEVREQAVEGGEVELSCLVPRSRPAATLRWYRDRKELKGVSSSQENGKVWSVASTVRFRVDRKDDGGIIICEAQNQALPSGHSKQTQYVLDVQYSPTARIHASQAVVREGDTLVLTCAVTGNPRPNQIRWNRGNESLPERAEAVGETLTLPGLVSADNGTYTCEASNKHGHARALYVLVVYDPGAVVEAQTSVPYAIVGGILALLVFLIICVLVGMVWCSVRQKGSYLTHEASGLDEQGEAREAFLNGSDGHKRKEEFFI

[6] = target: T4, Nectin-1-Fc (human (by the printed RefSeq entry)); experiment: SPR; SPR imaging (OpenPlex); the 10 IgSF-Fc proteins (7-24 μM) spotted in hexaplicate and immobilised by amine coupling; 2.4 μM CADM1-Fc injected for 4 min; 25°C; PBS with 0.2% BSA and 0.02% Tween20, 50 μL/min; signal of normal human IgG subtracted; both purified
[7] = target: Nectin-2-Fc (human (by the printed RefSeq entry)) (UniProt Q92692); experiment: as above
[8] = target: Nectin-4-Fc (human (by the printed RefSeq entry)) (UniProt Q96NY8); experiment: as above
[9] = target: Nectin-3-Fc (human (by the printed RefSeq entry)) (UniProt Q9NQS3); experiment: as above

binding [1]: binds | binding [2]: binds | binding [3]: binds
B1: CADM2-Fc (Fc fusion, UniProt Q8N3J6-1 25-367)
chain: T3 sequence

binding [4]: no binding | binding [3]: binds | binding [5]: no binding
B2: CADM3-Fc (Fc fusion, UniProt Q8N126-1 25-330)
chain: T1 sequence

binding (CADM4-FLAG): binds
B3: CADM1-GFP (protein, UniProt Q9BY67 45-442)
chain: QNLFTKDVTVIEGEVATISCQVNKSDDSVIQLLNPNRQTIYFRDFRPLKDSRFQLLNFSSSELKVSLTNVSISDEGRYFCQLYTDPPQESYTTITVLVPPRNLMIDIQKDTAVEGEEIEVNCTAMASKPATTIRWFKGNTELKGKSEVEEWSDMYTVTSQLMLKVHKEDDGVPVICQVEHPAVTGNLQTQRYLEVQYKPQVHIQMTYPLQGLTREGDALELTCEAIGKPQPVMVTWVRVDDEMPQHAVLSGPNLFINNLNKTDNGTYRCEASNIVGKAHSDYMLYVYDPPTTIPPPTTTTTTTTTTTTTILTIITDSRAGEEGSIRAVDHAVIGGVVAVVVFAMLCLLIILGRYFARHKGTYFTHEAKGADDAADADTAIINAEGGQNNSEEKKEYFI

binding [6]: no binding (tested: 2.4 μM CADM1-Fc) | binding [7]: no binding (tested: 2.4 μM CADM1-Fc) | binding [8]: no binding (tested: 2.4 μM CADM1-Fc) | binding [9]: no binding (tested: 2.4 μM CADM1-Fc)
B4: CADM1-Fc (Fc fusion, UniProt Q9BY67-1 45-374)
chain: T2 sequence
